The whole screen tested about 44,000 compounds, of which about 340 (0.77%) were called active. Another 5% or so got no clear call; they are omitted. The call rests on the fitted dose curve; in most records, active means well fitted inhibition curve with a large enough effect; inconclusive means small, poorly fitted or top-dose-only effect; inactive means flat fitted curve, though single readings scatter. This is one part of the list.
Assay: Acumen qHTS Assay for Inhibitors of the mTORC1 Signaling Pathway in MEF (Tsc2-/-, p53-/-) Cells: Sytravon; further: nearly all actives have a fitted effect of over 50% in size;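 on activity change, negative = inhibition: plate controls were DMSO for no effect and rapamycin for full effect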
Settings: phospho-rpS6 immunofluorescence/PI, 24 h; series mostly up to 38.3 µM; activity change, negative = inhibition: at the top concentration
How it was run: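 Read-out: phospho-S6 Alexa-488 intensity over PI intensity per well, scored as % active cells using thresholds from rapamycin (7.5 nM) and DMSO controls. Tsc2-/-, p53-/- MEFs exposed to compound for 24 h; PI cell count recorded as viability.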
Potency means the concentration at half of the fitted maximal effect.

| Structure (SMILES) | activity change, negative = inhibition | Potency |
| --- | --- | --- |
| COc1ccc(-c2cc3nc(-c4ccccc4)cc(C(F)(F)F)n3n2)cc1 | inactive: 1.94% | – |
| COc1ccc(CCNC(=O)Cc2c(C)c3c(cc(C)c4c(C)coc43)oc2=O)cc1 | inactive: 2.87% | – |
| COC(=O)c1cc(NC(=O)c2oc(=O)c3ccccc3c2-c2ccccc2)cc(C(=O)OC)c1 | inactive: 2.74% | – |
| Cc1ccc(NC(=O)CN2C(=O)CSc3ccc(S(=O)(=O)N4CCCC4)cc32)cc1F | inactive: -18.9% | – |
| COc1cc(OC)c(NC(=O)c2nnn(Cc3ccc(C)cc3)c2N)cc1Cl | inactive: 0.0607% | – |
| Cc1ccc(NC(=O)c2c(NC(=O)c3ccco3)sc3c2CCC(C(C)(C)C)C3)c(C)c1 (stereo not given) | inactive: 6.15% | – |
| O=C(Cc1ccc(F)cc1)NC1CC(=O)N(c2ccc3c(c2)OCCO3)C1 (stereo not given) | inactive: -12.3% | – |
| COc1cccc(-c2cn3c(n2)sc2cc(C(=O)NC4CCCCCC4)ccc23)c1 | inactive: 4.9% | – |
| O=C(Cn1ncc2c3ccccc3n(Cc3ccc(Cl)cc3)c2c1=O)N1CCCCCC1 | inactive: 1.03% | – |
| COc1ccc(Br)cc1CNC(=O)Cn1c(=O)c2cccn2c2ccc(F)cc21 | inactive: -12.2% | – |
| Cc1ccccc1Cn1cc(CCC(=O)NC(C)c2ccccc2)c2ccccc21 (stereo not given) | inactive: -3.75% | – |
| Cc1cc(C)c2oc(-c3cccc(NC(=O)c4ccc(Br)o4)c3)nc2c1 | inactive: 10% | – |
| CCC(C)c1ccc(OCC(=O)Nc2cccc(-c3nc4ncccc4o3)c2)cc1 (stereo not given) | inactive: -20.6% | – |
| CCOc1ccc(NC(=O)c2oc3ccccc3c2NC(=O)Cc2ccc(F)cc2)cc1 | inactive: -10.1% | – |
| Cc1ccc(S(=O)(=O)N(CC(=O)Nc2ccc(C(C)C)cc2)Cc2ccccc2)cc1 | inactive: 4.73% | – |
| CC(=O)N1c2ccc(S(=O)(=O)NCC3CCC(C(=O)NC(C)(C)C)CC3)cc2CC1C (stereo not given) | inactive: -3.89% | – |
| Cc1ccccc1NC(=O)CCC(=O)N1CCSc2ccccc21 | inactive: -0.283% | – |
| O=C(NCC(c1cccs1)S(=O)(=O)c1cccs1)c1ccccc1F (stereo not given) | inactive: 1.83% | – |
| Clc1ccccc1N1CCN(c2ncnc3c2c(-c2ccccc2)cn3-c2ccccc2)CC1 | inactive: 5.98% | – |
| CCN(CC)c1nn2c(=O)c(C(=O)NCc3ccc(OC)cc3OC)cnc2s1 | inactive: 1.43% | – |
| Cc1ccc(-n2nc3ccc(NC(=O)c4oc5ccccc5c4C)cc3n2)cc1 | inactive: 0.544% | – |
| O=C(Nc1ccc2c(c1)CCCN2C(=O)c1cccs1)c1cccc(C(F)(F)F)c1 | inactive: 1.21% | – |
| CCN(C(=O)c1noc2c1COc1ccc(C)cc1-2)c1cccc(C)c1 | inactive: 6.76% | – |
| Cc1cccc(N2CCN(C(=O)c3cc(S(=O)(=O)N4CCC(C)CC4)cn3C)CC2)c1C | inactive: -5.56% | – |

| Structure (SMILES) | activity change, negative = inhibition | Potency |
| --- | --- | --- |
| CC(C)(C)OC(=O)N1CCC(c2c(C(=O)NCCN3CCC(Cc4ccccc4)CC3)cnn2-c2cccc(Cl)c2)CC1 | – | active: 14.7 µM |
| O=C(NCc1ccc(Cl)cc1)C(=O)NCC(c1cccs1)S(=O)(=O)c1ccc(Cl)cc1 (stereo not given) | inactive: -8.64% | – |
| O=C(NCCCN1CCN(c2ccccc2)CC1)c1nnc(Cc2c(F)cccc2Cl)o1 | inactive: -5.23% | – |
| CCOc1ccc(CCNC(=O)C2CCN(c3ncnc4c3nc3n4CCCCC3)CC2)cc1 | inactive: 0.071% | – |
| Cc1cccc(C)c1NC(=O)Cn1nnc(S(=O)(=O)c2ccccc2)c1N | inactive: -9.68% | – |
| O=C1CN(C(=O)c2ccc(S(=O)(=O)N3CCCC3)cc2)C(c2ccccc2)c2cc(F)ccc2N1 (stereo not given) | inactive: 3.02% | – |
| Cc1ccccc1-c1noc(-c2ccccc2OCC(=O)Nc2cccc([N+](=O)[O-])c2)n1 | inactive: -1.94% | – |
| N#Cc1c(-c2ccccc2)cc(-c2ccccc2)nc1SCC(O)CS(=O)(=O)Cc1ccc(Cl)cc1 (stereo not given) | inactive: 3.5% | – |
| CCn1cc(/C=C(\NC(=O)c2cc(OC)c(OC)c(OC)c2)C(=O)NCCCn2ccnc2)c2ccccc21 | inactive: -2.8% | – |
| Cc1cc(NC(=O)Cc2ccccc2)cc(-c2nc3ccccc3o2)c1O | inactive: 4.84% | – |
| CCOC(=O)c1cc2c(=O)n3ccccc3nc2n(C(C)C)c1=NC(=O)C(C)(C)Oc1ccc(Cl)cc1 | inactive: 2.63% | – |
| Cc1c(C(=O)NCCN(C)C)oc2c1-c1nn(Cc3cccc(Cl)c3)cc1CC2 | inactive: -1.51% | – |
| Cc1nc(-c2ccc(F)cc2)sc1CCNC(=O)Cc1ccc(F)cc1 | inactive: 10.3% | – |
| CN(C)c1ccc(Nc2ncnc3c2c(-c2ccccc2)cn3-c2cccc(Cl)c2)cc1 | inactive: 0% | – |
| Cc1cccc(S(=O)(=O)c2cn(Cc3ccccc3)c3cc(N4CCCCC4)c(F)cc3c2=O)c1 | inactive: -11.2% | – |
| COc1ccc(CCC(=O)NC2CC(=O)N(c3ccc(F)cc3)C2)cc1 (stereo not given) | inactive: -5.5% | – |
| CCN(CC)C(=O)c1c(-c2ccccc2)c(-c2ccccc2)nn(CC)c1=O | inactive: -2.37% | – |
| COc1ccccc1N1CCN(C(=O)CN2C(=O)COc3ccc(S(=O)(=O)N4CCOCC4)cc32)CC1 | inactive: -7.48% | – |
| CCN(Cc1nc(-c2ccc(OC)c(OC)c2)no1)S(=O)(=O)c1ccc(OC)cc1 | inactive: 0.542% | – |
| COc1ccc(-c2nc3sc(CCNC(=O)c4ccc(Br)o4)c(C)n3n2)cc1 | inactive: 0.559% | – |
| O=C(CSc1nc(=O)n(Cc2ccccn2)c2c1CCC2)Nc1ccccc1 | inactive: -3.27% | – |
| CSc1ccccc1NC(=O)CCS(=O)(=O)c1nc(-c2ccc3c(c2)OCO3)cc(C(F)(F)F)n1 | inactive: -4.24% | – |
| COc1cc(CNC(=O)c2cnc(SC)nc2-c2ccccc2)cc(OC)c1OC | inactive: -8.15% | – |
| Cc1ccc(S(=O)(=O)C(CNS(=O)(=O)c2cc(F)ccc2F)c2cccs2)cc1 (stereo not given) | inactive: -0.135% | – |

| Structure (SMILES) | activity change, negative = inhibition | Potency |
| --- | --- | --- |
| CC(C)(C)OC(=O)N1CCC(c2c(C(=O)NC3CCCCC3)cnn2-c2ccc(F)cc2F)CC1 | inactive: 0.891% | – |
| O=C(O)c1ccccc1C(=O)Nc1ccc(Br)c2cccnc12 | inactive: -1.28% | – |
| CCN1CCN(c2oc(-c3ccc(COc4ccccc4C)o3)nc2C#N)CC1 | inactive: -20.8% | – |
| CCCNC(=O)c1ccc2c(c1)nc1n2CCCCC1 | inactive: -9.51% | – |
| Cc1noc(C)c1S(=O)(=O)N(CC(=O)Nc1ccc(F)cc1F)c1ccc(C(C)C)cc1 | inactive: -1.93% | – |
| Cc1ccc(NC(=O)C2CCN(S(=O)(=O)c3cccc4nsnc34)CC2)cc1F | inactive: -19.3% | – |
| COc1ccc(Cn2ccc3nc(C)c(C(=O)Nc4cccc(SC)c4)cc3c2=O)cc1 | inactive: -1.43% | – |
| COc1cccc(CNC(=O)Cn2ncn3nc(-c4cccs4)cc3c2=O)c1 | inactive: -0.532% | – |
| COc1ccc(NC(=O)C(=O)NCCc2csc3nc(-c4ccccc4F)nn23)cc1OC | inactive: 6.17% | – |
| CC(=O)c1ccc(NS(=O)(=O)c2ccc3c(c2)NC(=O)CCS3)cc1 | inactive: -3.3% | – |
| CCn1cc2nc(SCc3ccccc3Cl)n(Cc3ccc(OC)cc3)c(=O)c2n1 | inactive: 9.2% | – |
| COc1cccc(CNC(=O)c2ccc(-c3nc(CSc4ccccc4)c(C)o3)cc2)c1 | inactive: -9.27% | – |
| CCCN(CCC)CCCNC(=O)c1cc2c(=O)n(C)c3ccccc3c2s1 | inactive: 1.17% | – |
| CC(=O)Nc1ccccc1-c1nc2ccccc2n(C(C)C(=O)Nc2ccccc2C(F)(F)F)c1=O (stereo not given) | inactive: 0% | – |
| COc1ccc(-c2c(C)c3ccc(O)c(CN4CCC(C)CC4)c3oc2=O)cc1OC | inactive: 0.295% | – |
| COc1ccc(C(Nc2ccccn2)c2ccc3ccc(C)nc3c2O)cc1C (stereo not given) | inactive: 4.23% | – |
| CN1CCN(c2ncnc3c2cnn3-c2cccc(Cl)c2)CC1 | inactive: 6.71% | – |
| Cc1cccc(N2CCN(C3=C(c4ccccc4)C(=O)c4ccccc43)CC2)c1C | inactive: -29.1% | – |
| Cc1ccc(CNC(=O)c2cc(=O)c3cc(C)ccc3o2)cc1 | inactive: -8.79% | – |
| COc1cc(OC)c(OC)cc1/C=C/c1nc2cc3ccccc3cc2c(=O)n1-c1ccccc1Br | inactive: 7.38% | – |
| COc1cc2c(c(OC)c1)C(c1cccc(F)c1F)CC(=O)N2 (stereo not given) | inactive: 3.21% | – |
| CCOC(=O)c1c(NC(=O)c2cc(=O)c3cc(C)ccc3o2)sc2c1CCCC2 | inactive: 3.48% | – |
| COc1ccc(Cl)cc1NC(=O)CSC1=Nc2ccccc2C2=NC(CCC(=O)NCc3ccco3)C(=O)N12 (stereo not given) | inactive: -6.66% | – |
| Cc1ccc(Cn2c(CCNC(=O)c3cccc(C)c3)nc3ccccc32)cc1 | inactive: -7.38% | – |

| Structure (SMILES) | activity change, negative = inhibition | Potency |
| --- | --- | --- |
| Cc1cccc(NC(=O)CN2C(=O)C3(SCC(=O)N3c3ccccc3)c3ccccc32)c1 (stereo not given) | inactive: -2.31% | – |
| Cc1ccc(Cn2c(C(=O)O)c(CNCc3ccc(C)o3)c3ccc(C)cc32)cc1 | inactive: -3.02% | – |
| Cc1ccc(S(=O)(=O)N2CCN(Cc3ccccc3Cl)CC2)cc1 | inactive: -4.68% | – |
| COc1ccc(NC(=O)c2cccc(N3CCCS3(=O)=O)c2)c(OC)c1 | inactive: 0.902% | – |
| CC(C)Cn1cc(NC(=O)NCc2cccc(Cl)c2)c2ccccc2c1=O | inactive: 1.33% | – |
| O=C(NCCC1=CCCCC1)c1ccc2c(c1)sc1nc(-c3ccc(F)cc3)cn12 | inactive: -15.1% | – |
| O=C(NCCc1ccccc1)c1ccc2c(c1)N(Cc1ccc(F)cc1)C(=O)CS2 | inactive: 2.56% | – |
| CCN(CC)c1ccc(NC(=O)CN2CCN(CC(=O)Nc3ccc(Cl)cc3)CC2)cc1 | inactive: 1.28% | – |
| Cc1ccc2oc(C(=O)Nc3sc4c(c3C(=O)NCC3CCCO3)CCC4)cc(=O)c2c1 (stereo not given) | inactive: -0.185% | – |
| COCCNC(=O)Cn1nc(-c2ccccc2)c2ccccc2c1=O | inactive: -1.68% | – |
| COc1cc(OC)c(C2CC(=O)Nc3ccc4ccccc4c32)cc1OC (stereo not given) | inactive: 1.87% | – |
| CC(NC(=O)c1cc2c(=O)n3ccccc3nc2n(C(C)C)c1=N)c1ccccc1 (stereo not given) | inactive: -11.3% | – |
| CC(NC(=O)Cn1c(=O)oc2cc(S(=O)(=O)N3CCCCCC3)ccc21)c1ccccc1 (stereo not given) | inactive: 0.0619% | – |
| COC(=O)c1ccccc1NC(=O)c1nc(-c2ccc(C)cc2)n2c1CCCCC2 | inactive: 6.57% | – |
| COc1cccc(Cn2c(=O)n(CC3CCC(C(=O)NC(C)C)CC3)c(=O)c3sccc32)c1 (stereo not given) | inactive: -11% | – |
| Cc1cn(C)c(CC(=O)NCc2ccc(Cl)cc2)c1C(=O)O | inactive: -9.1% | – |
| Cc1cccc(OC(=O)CSc2nnc(-c3ccc4c(c3)OCO4)o2)c1C | inactive: -9.84% | – |
| Cc1ccc(C2=NN(CC(=O)NCCc3ccccc3)C(=O)CC2)cc1 | inactive: 1.77% | – |
| Cc1ccc(CCNS(=O)(=O)c2ccc3c(c2)C(C(C)C)C(=O)N3)cc1 (stereo not given) | inactive: -3.37% | – |
| COc1cc(NC(=O)CN2C(=O)CCc3cc(Br)ccc32)cc(OC)c1OC | inactive: 0% | – |
| Cc1cccc(-c2noc(-c3cc(C(C)C)[nH]n3)n2)c1 | inactive: 0% | – |
| CC(=O)N1c2ccccc2C(=O)C1N1CCN(c2cccc(Cl)c2)CC1 (stereo not given) | inactive: -1.44% | – |
| CCOc1ccc(C2c3c(-c4cc(C)ccc4O)n[nH]c3C(=O)N2Cc2cccnc2)cc1OCC (stereo not given) | inactive: -7.06% | – |

Source: PubChem BioAssay AID493208 (National Center for Advancing Translational Sciences (NCATS), 2011)
